Reference: paper PMC12136788
The other results are listed elsewhere or left out.

T1: UNK ZnF1-3 (human, UniProt Q9C0B0 31-174)
T1 sequence: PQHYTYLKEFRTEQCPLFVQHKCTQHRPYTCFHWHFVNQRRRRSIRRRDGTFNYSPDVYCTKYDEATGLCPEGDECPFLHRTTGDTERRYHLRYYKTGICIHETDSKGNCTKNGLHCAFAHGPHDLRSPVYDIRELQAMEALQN

B1: chrX:7513246:7513247:-_ENSMUSG00000031161_ENSMUST00000115642|mus_hu|FALSE|FALSE (ssRNA)
RNA: GGGAGUUCUACAGUCCGACGAUCUAGGUAGUCAGCAUCACCCAUGCGGGGCCCGUUCCAUGCCACGUUGACGGUGAAGCCUGUGCCCGCAGCCCGGCCGAUCUGGCUGCUGGCACCCUCAUCCCCCAUGGGGAAGAAGGUGCCCAACAGAGGAUUGAGCAUCA
B2: chr1:21097501:21097502:-_ENSG00000127483_ENST00000312239|hu_hu|FALSE|FALSE (ssRNA)
RNA: GGGAGUUCUACAGUCCGACGAUCUUCUCUUUUCAGUGCUUGUUUAAGGAGAUAACCCCUUCUCUCCAGCUCCAGAGAAGGAUACUUAUGGAUGAUGUAUUUUCGAAUAGCAACCACUGAUGCACCACUCUUCUGGAAGCAUGCCAACAGAGGAUUGAGCAUCA
B3: chr1:60041781:60041782:+_ENSMUSG00000041040_ENSMUST00000036540|mus_hu|mus_mus_mus_hu_False|18_108 (ssRNA)
RNA: GGGAGUUCUACAGUCCGACGAUCAAGAGGAGUGAAUUAAAGUAAAUGCAGUAGUGGCAAAUUUUCUUUUAUUUUCCUUCACAAAAGAAAAUCUUUAUAACCCAGUCCUAGUCUUGGCAGAGAAAGCAGCUAUAAAUUCUGACUCAACAGAGGAUUGAGCAUCA
B4: chr1:53517203:53517204:+_ENSG00000116171_ENST00000408941|hu_hu|FALSE|FALSE (ssRNA)
RNA: GGGAGUUCUACAGUCCGACGAUCAGAAAAAGUUAUUUUAAUUUUCUAUUAAACAUUCUUCUCAAAGCAUUAUUUUAUCCUAUAUCUCACUGAAUUUUAAGAAAUAACAUUAGUAUUAGAAAAACUAGGAAAAAAGAUAAAUGCCAACAGAGGAUUGAGCAUCA
B5: chr16:33500690:33500691:+_ENSMUSG00000022811_ENSMUST00000165418|mus_mus|FALSE|FALSE (ssRNA)
RNA: GGGAGUUCUACAGUCCGACGAUCAACAAGAAAUGUUUGUCUGCUUUAGUCUGUUUCCUACCAAAGUUUAGGUGGAAAAAAGGAAACACACACUUUUUAUUUGCAGAAUAUAGCAAAAACAACUGGAAAAUUAUUUCCCUGAAACAACAGAGGAUUGAGCAUCA
B6: chr5:77712431:77712432:+_ENSG00000085365_ENST00000538629|hu_hu|FALSE|FALSE (ssRNA)
RNA: GGGAGUUCUACAGUCCGACGAUCCCAAUUAUUUUUUCUACCAUGUUGACUGAGGUUUUGCAUUUCUCGUUCCCGACGAUCUAAUUCUGCGGCUUUUCUUUCUAGUUCUUCCUGGCGCUUAAGAAGUUCAGCUUGGGCCAAUGCCAACAGAGGAUUGAGCAUCA
B7: chr8:87366250:87366251:-_ENSMUSG00000003814_ENSMUST00000003912|mus_hu|FALSE|FALSE (ssRNA)
RNA: GGGAGUUCUACAGUCCGACGAUCGGAGAGCAGAUGAAAUCUCAGGCCUGUGGCUUCUCCACACCACUGCCCCCCAGGUUGGAGGGGAGCUAAGAGAUGAGAGAAGGGGACAGAGGCAAGAAAAGAUGUUGAUCAAGAAAGAUGCAACAGAGGAUUGAGCAUCA
B8: chr12:42180722:42180723:-_ENSMUSG00000036295_ENSMUST00000043884|mus_hu|mus_mus_mus_hu_True|8_58 (ssRNA)
RNA: GGGAGUUCUACAGUCCGACGAUCCUGUAGGAGAAGAAUCUGUGUGUUAGCUGGCAAUCUGGCUGGGAAAGUUAAAAGCCCUAAAUCAUUACAAUCCACUGUAGAUGCUUCCAUAUAAAUGGAUCUGGGGGUAAACCAAGGCCUCAACAGAGGAUUGAGCAUCA
B9: 93743468_93745081_508_CDS_ENSMUSG00000054079_ENSMUST00000066888|mouse|control|control (ssRNA)
RNA: GGGAGUUCUACAGUCCGACGAUCAUUGUUCGACAUGUCAACUAUUUCCUCAUCUUCAUCAUCUUCAUCCACCCAAACUGGCUGCUUCUUCUUCUGAGAAAAAAUGUCUUUUGCUUCAUUUUCCACUUCCGAUUCAUCUGAGCUCAACAGAGGAUUGAGCAUCA
B10: chr2:232320318:232320319:-_ENSG00000115053_ENST00000322723|hu_hu|hu_hu_hu_mus_True|28_28 (ssRNA)
RNA: GGGAGUUCUACAGUCCGACGAUCACUAUUAAAGUCUACAAAACCAAACCCUUUGGAAGAACCAGUUUCCCGAUCAGUGACUAUUCUUGCACGAACAGAGCCCUCAAAUGACUCCUUUAAGGUCUCUUCAGUGGUAUCCUCAGACAACAGAGGAUUGAGCAUCA
B11: 28110298_28115287_231_CDS_ENSMUSG00000002221_ENSMUST00000002291|mouse|control|control (ssRNA)
RNA: GGGAGUUCUACAGUCCGACGAUCAGUCACCCAGGAAGGCUUUACAACGGGCAAGUCAAAGACCUCACGGGCUUCUCCCACCUCUGGGUUGUCCCCAUCCUCUGAAAUGAUGUGUGAGGCCAGGGCAUUGUAGGAGACUUCCUUCAACAGAGGAUUGAGCAUCA
B12: 153055496_153055616_3423_3pUTR_ENSMUSG00000051413_ENSMUST00000056924|mouse|control|control (ssRNA)
RNA: GGGAGUUCUACAGUCCGACGAUCGGGGCAGGGAAGAACUGGUGGGAGGUUGAGGCAGUUCCUAGGUAGUCUGUCCUGAAACCCUAGUGGAGAAGCCAGCAAACGGCACCACUAACACAAGUGCCCAGGCUGCUGGCUACAUCUCAACAGAGGAUUGAGCAUCA
B13: chr17:53040142:53040143:-_ENSG00000166260_ENST00000299335|hu_hu|FALSE|FALSE (ssRNA)
RNA: GGGAGUUCUACAGUCCGACGAUCCUGACUUCAAUUAUAUCCUGGAACUGGCAACUUGUGCCCUUCCUUUGCUUCAAAAAAAGUGUAAGAAAGAGUGAUAAGAUCAACUUUAAUCAUUCUUGGAUCUUCAGCAAAUUCAGGAUCCAACAGAGGAUUGAGCAUCA
B14: 25990515_25991650_895_CDS_ENSG00000143970_ENST00000336112|human|control|control (ssRNA)
RNA: GGGAGUUCUACAGUCCGACGAUCUUUAACUGAGGAAGAAAAGCUGGAGUUUGAGUUUUGAGGGCUGCCUGUCUGUCCAUCAGAUUGCUUUCCUUCCCAUGUUGCAGGUUUGGCAGGUACAGAGUCACUGGCUGCUUUGACAGUCAACAGAGGAUUGAGCAUCA
B15: chr5:128448638:128448639:+_ENSG00000066583_ENST00000173527|hu_mus|hu_hu_hu_mus_False|18_58 (ssRNA)
RNA: GGGAGUUCUACAGUCCGACGAUCGGCACUCGCCUUAAUUAGGUUCUGAAUUUCCUUGAACUUCGGGUGGUCUUUGUCAGCUACCAGCUGUAGGAGGACAGCCUCACUAGUGGUCACUAUGAUCCCGGUGCGGGCAAGACGCUCCAACAGAGGAUUGAGCAUCA
B16: chr15:98516890:98516891:+_ENSG00000140450_ENST00000268042|hu_mus|FALSE|FALSE (ssRNA)
RNA: GGGAGUUCUACAGUCCGACGAUCAAUAAAAAUUUUAAAAAGCAAGUGAACUUACCAAAAAAAAAAACACAACCUUUGCCUACUGAGUUUCUUAUUGUGCAAAACAGAGACACAGAAAGUAAAGUUGUGCUCCAGGGGAAGGGACAACAGAGGAUUGAGCAUCA
B17: chr15:27661301:27661302:-_ENSMUSG00000022263_ENSMUST00000090247|mus_hu|motif|central (ssRNA)
RNA: GGGAGUUCUACAGUCCGACGAUCAACCCCAACACACACACAAAACCAUAAAGCUCACCAUACGAAGUAUGUGCUUUUUCGGUAUAUUUAUUACAGGUACAACAGAGGUCUUCAUAAAUAGUUGCAUAAAAUGUUAAAGCCACACAACAGAGGAUUGAGCAUCA
B18: chr3:179287964:179287965:+_ENSG00000136518_ENST00000429709|hu_hu|hu_hu_hu_mus_True|1_88 (ssRNA)
RNA: GGGAGUUCUACAGUCCGACGAUCCUUGAGUGGUGAGAUGGCCUCCAUAUUCUCCCUGGGCACGCGGAGGGCAUUGGUGUCUAUGUAGUAGGUGGGCCCGCCCUGCUUGCCUUUGUCACCAUCAAUCUCCAUCAUUGUGCUUCCCAACAGAGGAUUGAGCAUCA
B19: 42053013_42054352_1604_CDS_ENSG00000196419_ENST00000405878|human|control|control (ssRNA)
RNA: GGGAGUUCUACAGUCCGACGAUCCAGGUCCACUGCUUGUUCCGGCUCCAUCAAAUCCAAGGCCAAGGCCUCCAGGUUCCUGAAGUGCUGCUGCAGCACGGGGUUCUCAAAGCUGUCACUUCUGUAUGUGAAGCGAAGCUUCUCCAACAGAGGAUUGAGCAUCA
B20: chr8:95500983:95500984:-_ENSG00000164944_ENST00000437199|hu_hu|hu_hu_hu_mus_True|78_98 (ssRNA)
RNA: GGGAGUUCUACAGUCCGACGAUCAGAACACAUCUAUUCGUGUAAAGACCGUACAUGGACGACCUCUCCACUGCCUCCACUAACAAACUUUCCUCUCGAGCCUCCACUGCCGCUAUUUGUACUAGCCCAGGACGGUCCCAGGCCCAACAGAGGAUUGAGCAUCA
B21: chr2:202488911:202488912:-_ENSG00000155755_ENST00000286196|hu_mus|hu_hu_hu_mus_False|1_8 (ssRNA)
RNA: GGGAGUUCUACAGUCCGACGAUCAUUGAAACAUUUUUCAUAAUCUCCAGUAGCAUUUCAGCAUUAUGUAACAAAAGCUCAAUUGUAAAUACAUGUAUCUUAUAAAAAUACACUUAAAAACACGAGUAAAAAUGGGACAAAUACCAACAGAGGAUUGAGCAUCA
B22: chr1:66480114:66480115:+_ENSMUSG00000015222_ENSMUST00000024639|mus_hu|mus_mus_mus_hu_True|1_108 (ssRNA)
RNA: GGGAGUUCUACAGUCCGACGAUCUGGCCUGUGACGGAUGUUCUUCAGAGAGCCACAUUUGGAUGUCACAUGGCUUAGGUCUAUUUUCUUGGUAACAAUUUGUACCUGCCCCCCUUUAGGCUGGUAUUUGAUGUUGUCAGUUGACAACAGAGGAUUGAGCAUCA

These binders were tested against T1, UNK ZnF1-3 (assay: nsRBNS (natural sequence RNA bind-n-seq); RBNS binding buffer (assumed for nsRBNS): 25 mM Tris pH 7.5, 150 mM KCl, 3 mM MgCl2, 0.01% Triton X-100, 500 ug/ml BSA, 20 U/ml SUPERase-In, 4 C; UNK is unkempt and MSI1 is Musashi-1; names of the RNAs are library labels; protein concentration not given here; high values mean tight binding).

Row | Binder | binding signal [enrichment R]
1 | B1 | 0.608
2 | B2 | 0.826
3 | B3 | 1.1
4 | B4 | 0.523
5 | B5 | 0.445
6 | B6 | 0.426
7 | B7 | 1.1
8 | B8 | 1.35
9 | B9 | 0.461
10 | B10 | 0.466
11 | B11 | 1.02
12 | B12 | 1.46
13 | B13 | 0.693
14 | B14 | 0.746
15 | B15 | 0.681
16 | B16 | 0.775
17 | B17 | 1.53
18 | B18 | 0.73
19 | B19 | 0.908
20 | B20 | 1.27
21 | B21 | 0.88
22 | B22 | 0.39
